Results reported in patent publication US20110319597A1 (CAPHALON AUSTRALIA, published 2011).

Target: T1, recombinant human TNFα (CytoLab) (human, UniProt P01375 fragment)
T1 construct: coated on the ELISA plate at 1 µg/ml; also called Tumour necrosis factor alpha
Assay: ELISA on coated human TNFα

T1 sequence (P01375 77-233 limits assumed): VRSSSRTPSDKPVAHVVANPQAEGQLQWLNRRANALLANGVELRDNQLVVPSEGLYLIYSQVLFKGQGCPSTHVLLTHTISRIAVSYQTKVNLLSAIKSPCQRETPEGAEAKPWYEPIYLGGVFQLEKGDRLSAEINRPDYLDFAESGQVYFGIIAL

B2: TNFα dAb Fc variant A84H (Fc fusion, name in Kabat numbering)
chain: DIQMTQSPSSLSASVGDRVTITCRASQAIDSYLHWYQQKPGKAPKLLIYSASNLETGVPSRFSGSGSGTDFTLTISSLLPEDFHTYYCQQVVWRPFTFGQGTKVEIKRV[human IgG1 Fc with changes left out]
- A450 (AU): 0.326 AU

B6: TNFα dAb Fc variant D82S (Fc fusion, name in Kabat numbering)
chain: DIQMTQSPSSLSASVGDRVTITCRASQAIDSYLHWYQQKPGKAPKLLIYSASNLETGVPSRFSGSGSGTDFTLTISSLLPESFATYYCQQVVWRPFTFGQGTKVEIKRV[human IgG1 Fc with changes left out]
- A450 (AU): 0.224 AU

B9: TNFα dAb Fc variant A84L (Fc fusion, name in Kabat numbering)
chain: DIQMTQSPSSLSASVGDRVTITCRASQAIDSYLHWYQQKPGKAPKLLIYSASNLETGVPSRFSGSGSGTDFTLTISSLLPEDFLTYYCQQVVWRPFTFGQGTKVEIKRV[human IgG1 Fc with changes left out]
- A450 (AU): 0.212 AU

B11: TNFα dAb Fc variant A84Q (Fc fusion, name in Kabat numbering)
chain: DIQMTQSPSSLSASVGDRVTITCRASQAIDSYLHWYQQKPGKAPKLLIYSASNLETGVPSRFSGSGSGTDFTLTISSLLPEDFQTYYCQQVVWRPFTFGQGTKVEIKRV[human IgG1 Fc with changes left out]
- A450 (AU): 0.28 AU

B12: TNFα dAb Fc variant D82A (Fc fusion, name in Kabat numbering)
chain: DIQMTQSPSSLSASVGDRVTITCRASQAIDSYLHWYQQKPGKAPKLLIYSASNLETGVPSRFSGSGSGTDFTLTISSLLPEAFATYYCQQVVWRPFTFGQGTKVEIKRV[human IgG1 Fc with changes left out]
- A450 (AU): 0.219 AU

B13: TNFα dAb Fc variant A43L (Fc fusion, name in Kabat numbering)
chain: DIQMTQSPSSLSASVGDRVTITCRASQAIDSYLHWYQQKPGKLPKLLIYSASNLETGVPSRFSGSGSGTDFTLTISSLLPEDFATYYCQQVVWRPFTFGQGTKVEIKRV[human IgG1 Fc with changes left out]
- A450 (AU): 0.718 AU

B14: TNFα dAb Fc variant A84S (Fc fusion, name in Kabat numbering)
chain: DIQMTQSPSSLSASVGDRVTITCRASQAIDSYLHWYQQKPGKAPKLLIYSASNLETGVPSRFSGSGSGTDFTLTISSLLPEDFSTYYCQQVVWRPFTFGQGTKVEIKRV[human IgG1 Fc with changes left out]
- A450 (AU): 0.645 AU

B17: TNFα dAb Fc variant D82Q (Fc fusion, name in Kabat numbering)
chain: DIQMTQSPSSLSASVGDRVTITCRASQAIDSYLHWYQQKPGKAPKLLIYSASNLETGVPSRFSGSGSGTDFTLTISSLLPEQFATYYCQQVVWRPFTFGQGTKVEIKRV[human IgG1 Fc with changes left out]
- A450 (AU): 0.195 AU

B19: TNFα dAb Fc variant D70Y (Fc fusion, name in Kabat numbering)
chain: DIQMTQSPSSLSASVGDRVTITCRASQAIDSYLHWYQQKPGKAPKLLIYSASNLETGVPSRFSGSGSGTYFTLTISSLLPEDFATYYCQQVVWRPFTFGQGTKVEIKRV[human IgG1 Fc with changes left out]
- A450 (AU): 0.938 AU

B21: TNFα dAb Fc variant A84Y (Fc fusion, name in Kabat numbering)
chain: DIQMTQSPSSLSASVGDRVTITCRASQAIDSYLHWYQQKPGKAPKLLIYSASNLETGVPSRFSGSGSGTDFTLTISSLLPEDFYTYYCQQVVWRPFTFGQGTKVEIKRV[human IgG1 Fc with changes left out]
- A450 (AU): 0.179 AU

B22: TNFα dAb Fc variant A43S (Fc fusion, name in Kabat numbering)
chain: DIQMTQSPSSLSASVGDRVTITCRASQAIDSYLHWYQQKPGKSPKLLIYSASNLETGVPSRFSGSGSGTDFTLTISSLLPEDFATYYCQQVVWRPFTFGQGTKVEIKRV[human IgG1 Fc with changes left out]
- A450 (AU): 0.831 AU

B24: TNFα dAb Fc variant D70H (Fc fusion, name in Kabat numbering)
chain: DIQMTQSPSSLSASVGDRVTITCRASQAIDSYLHWYQQKPGKAPKLLIYSASNLETGVPSRFSGSGSGTHFTLTISSLLPEDFATYYCQQVVWRPFTFGQGTKVEIKRV[human IgG1 Fc with changes left out]
- A450 (AU): 1.03 AU

B26: TNFα dAb Fc variant D70L (Fc fusion, name in Kabat numbering)
chain: DIQMTQSPSSLSASVGDRVTITCRASQAIDSYLHWYQQKPGKAPKLLIYSASNLETGVPSRFSGSGSGTLFTLTISSLLPEDFATYYCQQVVWRPFTFGQGTKVEIKRV[human IgG1 Fc with changes left out]
- A450 (AU): 0.991 AU

B27: TNFα dAb Fc variant D82P (Fc fusion, name in Kabat numbering)
chain: DIQMTQSPSSLSASVGDRVTITCRASQAIDSYLHWYQQKPGKAPKLLIYSASNLETGVPSRFSGSGSGTDFTLTISSLLPEPFATYYCQQVVWRPFTFGQGTKVEIKRV[human IgG1 Fc with changes left out]
- A450 (AU): 0.204 AU

Now from value to binder:

- A450 (AU): 0.896 AU
B1: TNFα dAb Fc variant E81A (Fc fusion, name in Kabat numbering)
chain: DIQMTQSPSSLSASVGDRVTITCRASQAIDSYLHWYQQKPGKAPKLLIYSASNLETGVPSRFSGSGSGTDFTLTISSLLPADFATYYCQQVVWRPFTFGQGTKVEIKRV[human IgG1 Fc with changes left out]

- A450 (AU): 0.208 AU
B3: TNFα dAb Fc variant F62D (Fc fusion, name in Kabat numbering)
chain: DIQMTQSPSSLSASVGDRVTITCRASQAIDSYLHWYQQKPGKAPKLLIYSASNLETGVPSRDSGSGSGTDFTLTISSLLPEDFATYYCQQVVWRPFTFGQGTKVEIKRV[human IgG1 Fc with changes left out]

- A450 (AU): 0.205 AU
B4: TNFα dAb Fc variant F71P (Fc fusion, name in Kabat numbering)
chain: DIQMTQSPSSLSASVGDRVTITCRASQAIDSYLHWYQQKPGKAPKLLIYSASNLETGVPSRFSGSGSGTDPTLTISSLLPEDFATYYCQQVVWRPFTFGQGTKVEIKRV[human IgG1 Fc with changes left out]

- A450 (AU): 0.292 AU
B5: TNFα dAb Fc variant F62K (Fc fusion, name in Kabat numbering)
chain: DIQMTQSPSSLSASVGDRVTITCRASQAIDSYLHWYQQKPGKAPKLLIYSASNLETGVPSRKSGSGSGTDFTLTISSLLPEDFATYYCQQVVWRPFTFGQGTKVEIKRV[human IgG1 Fc with changes left out]

- A450 (AU): 0.824 AU
B7: TNFα dAb Fc variant E81L (Fc fusion, name in Kabat numbering)
chain: DIQMTQSPSSLSASVGDRVTITCRASQAIDSYLHWYQQKPGKAPKLLIYSASNLETGVPSRFSGSGSGTDFTLTISSLLPLDFATYYCQQVVWRPFTFGQGTKVEIKRV[human IgG1 Fc with changes left out]

- A450 (AU): 0.226 AU
B8: TNFα dAb Fc variant G64K (Fc fusion, name in Kabat numbering)
chain: DIQMTQSPSSLSASVGDRVTITCRASQAIDSYLHWYQQKPGKAPKLLIYSASNLETGVPSRFSKSGSGTDFTLTISSLLPEDFATYYCQQVVWRPFTFGQGTKVEIKRV[human IgG1 Fc with changes left out]

- A450 (AU): 0.803 AU
B10: TNFα dAb Fc variant E81K (Fc fusion, name in Kabat numbering)
chain: DIQMTQSPSSLSASVGDRVTITCRASQAIDSYLHWYQQKPGKAPKLLIYSASNLETGVPSRFSGSGSGTDFTLTISSLLPKDFATYYCQQVVWRPFTFGQGTKVEIKRV[human IgG1 Fc with changes left out]

- A450 (AU): 0.795 AU
B15: TNFα dAb Fc variant E81H (Fc fusion, name in Kabat numbering)
chain: DIQMTQSPSSLSASVGDRVTITCRASQAIDSYLHWYQQKPGKAPKLLIYSASNLETGVPSRFSGSGSGTDFTLTISSLLPHDFATYYCQQVVWRPFTFGQGTKVEIKRV[human IgG1 Fc with changes left out]

- A450 (AU): 0.877 AU
B16: TNFα dAb Fc variant G41K (Fc fusion, name in Kabat numbering)
chain: DIQMTQSPSSLSASVGDRVTITCRASQAIDSYLHWYQQKPKKAPKLLIYSASNLETGVPSRFSGSGSGTDFTLTISSLLPEDFATYYCQQVVWRPFTFGQGTKVEIKRV[human IgG1 Fc with changes left out]

- A450 (AU): 0.613 AU
B18: TNFα dAb Fc variant F62L (Fc fusion, name in Kabat numbering)
chain: DIQMTQSPSSLSASVGDRVTITCRASQAIDSYLHWYQQKPGKAPKLLIYSASNLETGVPSRLSGSGSGTDFTLTISSLLPEDFATYYCQQVVWRPFTFGQGTKVEIKRV[human IgG1 Fc with changes left out]

- A450 (AU): 0.793 AU
B20: TNFα dAb Fc variant E81Y (Fc fusion, name in Kabat numbering)
chain: DIQMTQSPSSLSASVGDRVTITCRASQAIDSYLHWYQQKPGKAPKLLIYSASNLETGVPSRFSGSGSGTDFTLTISSLLPYDFATYYCQQVVWRPFTFGQGTKVEIKRV[human IgG1 Fc with changes left out]

- A450 (AU): 0.176 AU
B23: TNFα dAb Fc variant F71D (Fc fusion, name in Kabat numbering)
chain: DIQMTQSPSSLSASVGDRVTITCRASQAIDSYLHWYQQKPGKAPKLLIYSASNLETGVPSRFSGSGSGTDDTLTISSLLPEDFATYYCQQVVWRPFTFGQGTKVEIKRV[human IgG1 Fc with changes left out]

- A450 (AU): 0.808 AU
B25: TNFα dAb Fc variant E81Q (Fc fusion, name in Kabat numbering)
chain: DIQMTQSPSSLSASVGDRVTITCRASQAIDSYLHWYQQKPGKAPKLLIYSASNLETGVPSRFSGSGSGTDFTLTISSLLPQDFATYYCQQVVWRPFTFGQGTKVEIKRV[human IgG1 Fc with changes left out]

- A450 (AU): 0.597 AU
B28: TNFα dAb Fc variant F71Y (Fc fusion, name in Kabat numbering)
chain: DIQMTQSPSSLSASVGDRVTITCRASQAIDSYLHWYQQKPGKAPKLLIYSASNLETGVPSRFSGSGSGTDYTLTISSLLPEDFATYYCQQVVWRPFTFGQGTKVEIKRV[human IgG1 Fc with changes left out]

- A450 (AU): 0.193 AU
B29: TNFα dAb Fc variant G64Y (Fc fusion, name in Kabat numbering)
chain: DIQMTQSPSSLSASVGDRVTITCRASQAIDSYLHWYQQKPGKAPKLLIYSASNLETGVPSRFSYSGSGTDFTLTISSLLPEDFATYYCQQVVWRPFTFGQGTKVEIKRV[human IgG1 Fc with changes left out]

- A450 (AU): 0.226 AU
B30: TNFα dAb Fc variant F62P (Fc fusion, name in Kabat numbering)
chain: DIQMTQSPSSLSASVGDRVTITCRASQAIDSYLHWYQQKPGKAPKLLIYSASNLETGVPSRPSGSGSGTDFTLTISSLLPEDFATYYCQQVVWRPFTFGQGTKVEIKRV[human IgG1 Fc with changes left out]

- A450 (AU): 0.226 AU
B31: TNFα dAb Fc variant F71S (Fc fusion, name in Kabat numbering)
chain: DIQMTQSPSSLSASVGDRVTITCRASQAIDSYLHWYQQKPGKAPKLLIYSASNLETGVPSRFSGSGSGTDSTLTISSLLPEDFATYYCQQVVWRPFTFGQGTKVEIKRV[human IgG1 Fc with changes left out]

Each block holds one binder with its values, some of them ahead of it.
